Assay results from US7423058B2, “Inhibitors of hepatitis C virus NS3 protease” (Schering Corporation, priority 2004, dated 2008).
pKi: −log10 of the molar value.

Target: Recombinant heterodimeric HCV NS3/NS4A protease (strain 1a) (Hepatitis C virus genotype 1a, UniProt P27958)
Assay: Spectrophotometric assay for HCV protease inhibitory activity (chromogenic ester substrates)
Format: biochemical
Conditions: Table 1: Ketones; read-out: Ki* Range
Description: The present invention relates to novel HCV protease inhibitors. This utility can be manifested in their ability to inhibit the HCV NS2/NS4a serine protease.
Assay for HCV Protease Inhibitory Activity:
Spectrophotometric Assay: Spectrophotometric assay for the HCV serine protease can be performed on the inventive compounds by following the procedure described by R. Zhang et al, Analytical Biochemistry, 270 (1999) 268-275, the disclosure of which is incorporated herein by reference. The assay based on the proteolysis of chromogenic ester substrates is suitable for the continuous monitoring of HCV NS3 protease activity. The substrates are derived from the P side of the NS5A-NS5B junction sequence (Ac-DTEDVVX(Nva), where X=A or P) whose C-terminal carboxyl groups are esterified with one of four different chromophoric alcohols (3- or 4-nitrophenol, 7-hydroxy-4-methyl-coumarin, or 4-phenylazophenol). Illustrated below are the synthesis, characterization and application of these novel spectrophotometric ester substrates to high throughput screening and detailed kinetic evaluation of HCV NS3 protease inhibitors. Materials and Methods:
Materials: Chemical reagents for assay related buffers are obtained from Sigma Chemical Company (St. Louis, Mo.). Reagents for peptide synthesis were from Aldrich Chemicals, Novabiochem (San Diego, Calif.), Applied Biosystems (Foster City, Calif.) and Perseptive Biosystems (Framingham, Mass.). Peptides are synthesized manually or on an automated ABI model 431A synthesizer (from Applied Biosystems). UVNIS Spectrometer model LAMBDA 12 was from Perkin Elmer (Norwalk, Conn.) and 96-well UV plates were obtained from Corning (Corning, N.Y.). The prewarming block can be from USA Scientific (Ocala, Fla.) and the 96-well plate vortexer is from Labline Instruments (Melrose Park, Ill.). A Spectramax Plus microtiter plate reader with monochrometer is obtained from Molecular Devices (Sunnyvale, Calif.).
Protein concentrations are determined by the Biorad dye method using recombinant HCV protease standards previously quantified by amino acid analysis. Prior to assay initiation, the enzyme storage buffer (50 mM sodium phosphate pH 8.0, 300 mM NaCl, 10% glycerol, 0.05% lauryl maltoside and 10 mM DTT) is exchanged for the assay buffer (25 mM MOPS pH 6.5, 300 mM NaCl, 10% glycerol, 0.05% lauryl maltoside, 5 μM EDTA and 5 μM DTT) utilizing a Biorad Bio-Spin P-6 prepacked column. Substrate Synthesis and Purification: The synthesis of the substrates is done as reported by R. Zhang et al, (ibid.) and is initiated by anchoring Fmoc-Nva-OH to 2-chlorotrityl chloride resin using a standard protocol (K. Barlos et al, Int. J. Pept. Protein Res., 37 (1991), 513-520). The peptides are subsequently assembled, using Fmoc chemistry, either manually or on an automatic ABI model 431 peptide synthesizer. […] The combined filtrate and DCM wash is evaporated azeotropically (or repeatedly extracted by aqueous Na2CO3 solution) to remove the acid used in cleavage. The DCM phase is dried over Na2SO4 and evaporated.
The ester substrates are assembled using standard acid-alcohol coupling procedures (K. Holmber et al, Acta Chem. Scand., B33 (1979) 410-412). Peptide fragments are dissolved in anhydrous pyridine (30-60 mg/ml) to which 10 molar equivalents of chromophore and a catalytic amount (0.1 eq.) of para-toluenesulfonic acid (pTSA) were added. Dicyclohexylcarbodiimide (DCC, 3 eq.) is added to initiate the coupling reactions. Product formation is monitored by HPLC and can be found to be complete following 12-72 hour reaction at room temperature. Pyridine solvent is evaporated under vacuum and further removed by azeotropic evaporation with toluene.

| Structure (SMILES) | pKi |
| --- | --- |
| CC(C)[C@H](NC(=O)N[C@H](C(=O)N1C[C@H]2[C@@H]([C@H]1C(=O)NC(CC1CC1)C(=O)C(N)=O)C2(C)C)C1Cc2ccccc2C1)C(=O)C1CC1 (stereo partly drawn) [compound 4084] | > 7.12 |
| C=CCNC(=O)C(=O)C(CCCC)NC(=O)[C@@H]1[C@@H]2[C@H](CN1C(=O)[C@@H](NC(=O)N[C@H](C(=O)C1CC1)C(C)C)C(C)(C)C)C2(C)C (stereo partly drawn) [compound 4149] | > 7.12 |
| C#CCCC(NC(=O)[C@@H]1[C@@H]2[C@H](CN1C(=O)[C@@H](NC(=O)N[C@H](C(=O)c1nccs1)C1CCCCC1)C(C)(C)C)C2(C)C)C(=O)C(=O)NCC=C (stereo partly drawn) [compound 4034] | > 7.12 |
| CC(C)[C@H](NC(=O)N[C@H](C(=O)N1C[C@H]2[C@@H]([C@H]1C(=O)NC(CC1CC1(F)F)C(=O)C(N)=O)C2(C)C)C(C)(C)C)C(=O)c1ccccc1 (stereo partly drawn) [compound 4120] | > 7.12 |
| CC(C)(C)[C@H](NC(=O)N[C@H](C(=O)c1ccccc1)C1CCC1)C(=O)N1C[C@H]2[C@@H]([C@H]1C(=O)NC(CC1CC1)C(=O)C(N)=O)C2(C)C (stereo partly drawn) [compound 4046] | > 7.12 |
| CC(C)C(=O)[C@@H](NC(=O)N[C@H](C(=O)N1C[C@H]2[C@@H]([C@H]1C(=O)NC(CC1CC1)C(=O)C(N)=O)C2(C)C)C(C)(C)C)C(C)C (stereo partly drawn) [compound 4054] | > 7.12 |
| CCCNC(=O)C(=O)C(CCC(F)(F)F)NC(=O)[C@@H]1[C@@H]2[C@H](CN1C(=O)[C@@H](NC(=O)N[C@H](C(=O)C1CC1)C(C)C)C(C)(C)C)C2(C)C (stereo partly drawn) [compound 4133] | > 7.12 |
| C=CCNC(=O)C(=O)C(CCC(F)(F)F)NC(=O)[C@@H]1[C@@H]2[C@H](CN1C(=O)[C@@H](NC(=O)N[C@H](C(=O)C1CC1)C1CCCCC1)C(C)(C)C)C2(C)C (stereo partly drawn) [compound 4129] | > 7.12 |

Same assay, conditions: Table 3, Esters; read-out: Ki* Range

| Structure (SMILES) | pKi |
| --- | --- |
| CC(C)(C)OC(=O)[C@@H](NC(=O)N[C@H](C(=O)N1C[C@H]2[C@@H]([C@H]1C(=O)NC(CC1CCC1)C(=O)C(N)=O)C2(C)C)C1CCCC1)C(C)(C)C (stereo partly drawn) [compound 4428] | > 7.12 |
| C=CCNC(=O)C(=O)C(CC1CC1)NC(=O)[C@@H]1[C@@H]2[C@H](CN1C(=O)[C@@H](NC(=O)N[C@H](C(=O)OC(C)C)C(C)(C)C)C(C)(C)C)C2(C)C (stereo partly drawn) [compound 4578] | 6.60 to 7.12 |
| C=CCNC(=O)C(=O)C(CCCC)NC(=O)[C@@H]1[C@@H]2[C@H](CN1C(=O)[C@@H](NC(=O)N[C@H](C(=O)OC(C)(C)C)C(C)C)C1(C)CCCCC1)C2(C)C (stereo partly drawn) [compound 4458] | > 7.12 |
| C=CCNC(=O)C(=O)C(CCC)NC(=O)[C@@H]1[C@H]2CC(C)(C)O[C@H]2CN1C(=O)[C@@H](NC(=O)N[C@H](C(=O)OCc1ccco1)C(C)C)C1CCCCC1 (stereo partly drawn) [compound 4585] | 6.60 to 7.12 |
| CC(C)[C@H](NC(=O)N[C@H](C(=O)N1C[C@H]2[C@@H]([C@H]1C(=O)NC(CC1CC1)C(=O)C(N)=O)C2(C)C)C(C)(C)C)C(=O)OC(C1CC1)C1CC1 (stereo partly drawn) [compound 4305] | > 7.12 |
| CC(C)(C)[C@H](NC(=O)NC1(C(=O)OCc2ccccc2)CCCCC1)C(=O)N1C[C@H]2[C@@H]([C@H]1C(=O)NC(CC1CC1)C(=O)C(N)=O)C2(C)C (stereo partly drawn) [compound 4488] | > 7.12 |
| CCC(C)C(NC(=O)N[C@H](C(=O)N1C[C@H]2[C@@H]([C@H]1C(=O)NC(CC1CC1)C(=O)C(N)=O)C2(C)C)C1CCCCC1)C(=O)OCc1ccccc1 (stereo partly drawn) [compound 4657] | < 6.60 |
| CC(C)CC(C)(NC(=O)N[C@H](C(=O)N1C[C@H]2[C@@H]([C@H]1C(=O)NC(CC1CC1)C(=O)C(N)=O)C2(C)C)C(C)(C)C)C(=O)OCc1ccccc1 (stereo partly drawn) [compound 4562] | 6.60 to 7.12 |
| CC(C)(C)[C@H](NC(=O)NC1(C(=O)OCc2ccccc2)CC1)C(=O)N1C[C@H]2[C@@H]([C@H]1C(=O)NC(CC1CC1)C(=O)C(N)=O)C2(C)C (stereo partly drawn) [compound 4602] | 6.60 to 7.12 |
| CC(C)(C)OC(=O)CCNC(=O)C(=O)C(CC1CC1)NC(=O)[C@@H]1[C@@H]2[C@H](CN1C(=O)[C@@H](NC(=O)N[C@H](C(=O)OCC1CC1)C1CC1)C(C)(C)C)C2(C)C (stereo partly drawn) [compound 4473] | > 7.12 |
| CC(C)(C)OC(=O)[C@@H](NC(=O)N[C@H](C(=O)N1C[C@H]2[C@@H]([C@H]1C(=O)NC(CC1CC1)C(=O)C(N)=O)C2(Cl)Cl)C1Cc2ccccc2C1)C(C)(C)C (stereo partly drawn) [compound 4345] | > 7.12 |
| C=CCNC(=O)C(=O)C(CCC)NC(=O)[C@@H]1[C@@H]2[C@H](CN1C(=O)[C@@H](NC(=O)N[C@H](C(=O)OC(C)(C)C)C(C)(C)C)C1Cc3ccccc3C1)C2(C)C (stereo partly drawn) [compound 4480] | > 7.12 |
| C=CC(OC(=O)C1(NC(=O)N[C@H](C(=O)N2C[C@H]3[C@@H]([C@H]2C(=O)NC(CC2CC2)C(=O)C(N)=O)C3(C)C)C(C)(C)C)CCCCC1)c1ccccc1 (stereo partly drawn) [compound 4341] | > 7.12 |
| CC(C)[C@H](NC(=O)N[C@H](C(=O)N1C[C@H]2[C@@H]([C@H]1C(=O)N[C@@H](CC1CC1)C(=O)C(=O)NCCC(=O)OC(C)(C)C)C2(C)C)C(C)(C)C)C(=O)OCc1ccccc1 [compound 4484] | > 7.12 |
| C=CCNC(=O)C(=O)C(CCC)NC(=O)[C@@H]1[C@@H]2[C@H](CN1C(=O)[C@@H](NC(=O)N[C@H](C(=O)OC(C)C1CC1)C(C)(C)C)C(C)(C)C)C2(C)C (stereo partly drawn) [compound 4419] | > 7.12 |
| C=CCOC(=O)[C@@H](NC(=O)N[C@H](C(=O)N1C[C@H]2[C@@H]([C@H]1C(=O)NC(CC1CC1)C(=O)C(N)=O)C2(C)C)C(C)(C)C)C(C)C (stereo partly drawn) [compound 4366] | > 7.12 |
| CCCCC(NC(=O)[C@@H]1[C@H]2CC(C)(C)O[C@H]2CN1C(=O)[C@@H](NC(=O)N[C@H](C(=O)OCc1ccccc1)C(C)C)C(C)(C)C)C(=O)C(=O)NCCC(=O)OC(C)(C)C (stereo partly drawn) [compound 4652] | < 6.60 |
| CC(C)(C)[C@H](NC(=O)NC1(C(=O)OCc2cc(F)cc(F)c2)CCCCC1)C(=O)N1C[C@H]2[C@@H]([C@H]1C(=O)NC(CC1CC1)C(=O)C(N)=O)C2(C)C (stereo partly drawn) [compound 4512] | > 7.12 |
| CC(C)(C)OC(=O)[C@@H](NC(=O)N[C@H](C(=O)N1C[C@H]2[C@@H]([C@H]1C(=O)NC(CC1CC1)C(=O)C(N)=O)C2(C)C)C1CCCCC1)C1CCCC1 (stereo partly drawn) [compound 4326] | > 7.12 |
| CC(C)(C)[C@H](NC(=O)N[C@H](C(=O)OCC1CC1)C1CC1)C(=O)N1C[C@H]2[C@@H]([C@H]1C(=O)NC(CC1CC1)C(=O)C(N)=O)C2(C)C (stereo partly drawn) [compound 4346] | > 7.12 |
| C=CCNC(=O)C(=O)C(CCC)NC(=O)[C@@H]1[C@@H]2[C@H](CN1C(=O)[C@@H](NC(=O)N[C@H](C(=O)OCC1CC1)C1CCCCC1)C(C)(C)C)C2(C)C (stereo partly drawn) [compound 4445] | > 7.12 |
| CC(C)[C@H](NC(=O)N[C@H](C(=O)N1C[C@H]2[C@@H]([C@H]1C(=O)NC(CC1CC1)C(=O)C(N)=O)C2(C)C)C(C)C)C(=O)OC(C)(C)C (stereo partly drawn) [compound 4396] | > 7.12 |
| CC(C)(C)[C@H](NC(=O)N[C@H](C(=O)N1C[C@H]2[C@@H]([C@H]1C(=O)NC(CC1CCC1)C(=O)C(N)=O)C2(C)C)C(C)(C)C)C(=O)OCc1ccco1 (stereo partly drawn) [compound 4320] | > 7.12 |
| CC(C)(C)[C@H](NC(=O)N[C@H](C(=O)OCc1ccccc1)C1CCCCC1)C(=O)N1C[C@H]2[C@@H]([C@H]1C(=O)NC(CC1CC1)C(=O)C(N)=O)C2(C)C (stereo partly drawn) [compound 4318] | > 7.12 |

Same assay, conditions: Table 6; read-out: Ki* range

| Structure (SMILES) | pKi |
| --- | --- |
| CC(C)(C)[C@H](NC(=O)NC1(Cc2ccccn2)CCCCC1)C(=O)N1C[C@H]2[C@@H]([C@H]1C(=O)NC(CC1CC1)C(=O)C(N)=O)C21CCCC1 (stereo partly drawn) [compound 4941] | > 7.12 |
| CC(C)(C)[C@H](NC(=O)NC1(Cc2ccsc2)CCCCC1)C(=O)N1C[C@H]2[C@@H]([C@H]1C(=O)NC(CC1CC1)C(=O)C(N)=O)C2(C)C (stereo partly drawn) [compound 4923] | > 7.12 |
| CC(C)(C)[C@H](NC(=O)NC1(Cc2cccc(O)c2)CCCCC1)C(=O)N1C[C@H]2[C@@H]([C@H]1C(=O)NC(CC1CC1)C(=O)C(N)=O)C21CCCC1 (stereo partly drawn) [compound 4937] | > 7.12 |

Same assay, conditions: Table 8; read-out: Ki*

| Structure (SMILES) | pKi |
| --- | --- |
| CC1(C)[C@@H]2[C@@H](C(=O)NC(CC3CC3)C(=O)C(N)=O)N(C(=O)[C@@H](NC(=O)NC3(Cc4cccnc4)CCCCC3)C3CCCCC3)C[C@@H]21 (stereo partly drawn) [drawing 1477] | 7.85 |
